For 20 molecules, binding signal results are on record in PMC9911399, “Two distinct binding modes provide the RNA-binding protein RbFox with extraordinary sequence specificity”.

T1: RBFOX1 RRM RbFoxmut (Fox-RRM*) (Homo sapiens, UniProt Q9NWB1 109-208, R118D;E147R;N151S;E152T)
T1 sequence: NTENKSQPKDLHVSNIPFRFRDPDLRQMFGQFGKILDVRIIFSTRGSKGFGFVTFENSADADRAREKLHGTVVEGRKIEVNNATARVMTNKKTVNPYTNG

B1: GUAUUAG (DNA:RNA)
RNA: GGGAGACCGGAAUUCAGAUUGUCCGUAUUAGUUAAAUCCCGUCGUAGCCACCA
DNA 1: CAATCTGAATTCCGGTCTCCC
DNA 2: TGGTGGCTACGACGGGATT
B2: UAACAAU (DNA:RNA)
RNA: B1 RNA with G25U, U26A, U28C, U29A, G31U
DNA 1: CAATCTGAATTCCGGTCTCCC
DNA 2: TGGTGGCTACGACGGGATT
B3: UGAUCUC (DNA:RNA)
RNA: B1 RNA with G25U, U26G, U29C, A30U, G31C
DNA 1: CAATCTGAATTCCGGTCTCCC
DNA 2: TGGTGGCTACGACGGGATT
B4: UUCUAGC (DNA:RNA)
RNA: B1 RNA with G25U, A27C, U29A, A30G, G31C
DNA 1: CAATCTGAATTCCGGTCTCCC
DNA 2: TGGTGGCTACGACGGGATT
B5: CGUGUCU (DNA:RNA)
RNA: B1 RNA with G25C, U26G, A27U, U28G, A30C, G31U
DNA 1: CAATCTGAATTCCGGTCTCCC
DNA 2: TGGTGGCTACGACGGGATT
B6: CCCCUUA (DNA:RNA)
RNA: B1 RNA with G25C, U26C, A27C, U28C, A30U, G31A
DNA 1: CAATCTGAATTCCGGTCTCCC
DNA 2: TGGTGGCTACGACGGGATT
B7: AGGCCCG (DNA:RNA)
RNA: B1 RNA with G25A, U26G, A27G, U28C, U29C, A30C
DNA 1: CAATCTGAATTCCGGTCTCCC
DNA 2: TGGTGGCTACGACGGGATT
B8: GAUGCCU (DNA:RNA)
RNA: B1 RNA with U26A, A27U, U28G, U29C, A30C, G31U
DNA 1: CAATCTGAATTCCGGTCTCCC
DNA 2: TGGTGGCTACGACGGGATT
B9: UGGACGA (DNA:RNA)
RNA: GGGAGACCGGAAUUCAGAUUGUCCUGGACGAUUAAAUCCCGUCGUAGCCACCA
DNA 1: CAATCTGAATTCCGGTCTCCC
DNA 2: TGGTGGCTACGACGGGATT
B10: AAUCUUA (DNA:RNA)
RNA: B1 RNA with G25A, U26A, A27U, U28C, A30U, G31A
DNA 1: CAATCTGAATTCCGGTCTCCC
DNA 2: TGGTGGCTACGACGGGATT
B11: AGAGAUA (DNA:RNA)
RNA: B9 RNA with U25A, G27A, A28G, C29A, G30U
DNA 1: CAATCTGAATTCCGGTCTCCC
DNA 2: TGGTGGCTACGACGGGATT
B12: ACAUUAU (DNA:RNA)
RNA: B1 RNA with G25A, U26C, G31U
DNA 1: CAATCTGAATTCCGGTCTCCC
DNA 2: TGGTGGCTACGACGGGATT
B13: UAAGGUU (DNA:RNA)
RNA: B1 RNA with G25U, U26A, U28G, U29G, A30U, G31U
DNA 1: CAATCTGAATTCCGGTCTCCC
DNA 2: TGGTGGCTACGACGGGATT
B14: AUCGGCG (DNA:RNA)
RNA: B1 RNA with G25A, A27C, U28G, U29G, A30C
DNA 1: CAATCTGAATTCCGGTCTCCC
DNA 2: TGGTGGCTACGACGGGATT
B15: UUGCUAU (DNA:RNA)
RNA: B1 RNA with G25U, A27G, U28C, G31U
DNA 1: CAATCTGAATTCCGGTCTCCC
DNA 2: TGGTGGCTACGACGGGATT
B16: GGAGUCA (DNA:RNA)
RNA: B1 RNA with U26G, U28G, A30C, G31A
DNA 1: CAATCTGAATTCCGGTCTCCC
DNA 2: TGGTGGCTACGACGGGATT
B17: UGCCUCC (DNA:RNA)
RNA: B9 RNA with G27C, A28C, C29U, G30C, A31C
DNA 1: CAATCTGAATTCCGGTCTCCC
DNA 2: TGGTGGCTACGACGGGATT
B18: GGAAACG (DNA:RNA)
RNA: B1 RNA with U26G, U28A, U29A, A30C
DNA 1: CAATCTGAATTCCGGTCTCCC
DNA 2: TGGTGGCTACGACGGGATT
B19: GCUAAGG (DNA:RNA)
RNA: B1 RNA with U26C, A27U, U28A, U29A, A30G
DNA 1: CAATCTGAATTCCGGTCTCCC
DNA 2: TGGTGGCTACGACGGGATT
B20: GACCCGG (DNA:RNA)
RNA: B1 RNA with U26A, A27C, U28C, U29C, A30G
DNA 1: CAATCTGAATTCCGGTCTCCC
DNA 2: TGGTGGCTACGACGGGATT

Substitutions are numbered along the chain they refer to; changes in the protein carry UniProt numbers. This is one part of the list.

This experiment has as its target T1, RBFOX1 RRM RbFoxmut (Fox-RRM*). Description: EMSA; HiTS-Eq, 1 nM pool, 10 min; buffer printed only for the single-RNA assays: 10 mM Tris pH 7.5, 150 mM NaCl, 3.4 mM EDTA, 0.001% NP-40, 30 C. Particulars: tags: His6 N-terminal (pET28a); label: 5' 32P. The method in brief:
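Purified RbFox RRM (wild type or mutant) was equilibrated for 10 min in 50 µL with 1 nM of a 5′-radiolabelled pool of RNA with 7 randomized nucleotides, its flanks annealed to DNA oligonucleotides, across increasing protein concentrations. Free RNA was separated by 8% native PAGE, excised, reverse-transcribed, PCR-barcoded and sequenced on an Illumina HiSeq 2500. Relative association constants came from read-count changes of each variant against the control reaction, normalised to the cognate motif.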
Background: A gel shift assay detects complexes by their altered migration in electrophoresis.
For B1, the binding signal was 0.142 KA relative to UGCAUGU.
The same measure for B2: 0.0335 KA relative to UGCAUGU; for B3: 0.0775 KA relative to UGCAUGU; for B4: 0.103 KA relative to UGCAUGU.
As for B5, the binding signal is 0.119 KA relative to UGCAUGU.
Then B6, with 0.0931 KA relative to UGCAUGU; and B7, with 0.115 KA relative to UGCAUGU; and B8, with 0.0844 KA relative to UGCAUGU.
The same measure for B9: 0.131 KA relative to UGCAUGU.
Then B10, with 0.0831 KA relative to UGCAUGU; and B11, with 0.15 KA relative to UGCAUGU; and B12, with 0.127 KA relative to UGCAUGU.
In the case of B13, the binding signal is 0.0796 KA relative to UGCAUGU.
In the case of B14, the binding signal was 0.169 KA relative to UGCAUGU.
The same measure for B15: 0.116 KA relative to UGCAUGU; for B16: 0.0995 KA relative to UGCAUGU; for B17: 0.155 KA relative to UGCAUGU.
Then B18, with 0.0703 KA relative to UGCAUGU; and B19, with 0.0793 KA relative to UGCAUGU; and B20, with 0.0499 KA relative to UGCAUGU.
